The record followed here is the supplement of paper PMC8728848.

Common to all, as to assay: glycan array binding signal (z-score within array); higher = stronger binding
Holding throughout (conditions): glycan notation: IUPAC condensed, linker removed

Assay [1] concerns the target GlcNAc(b1-3)Gal(b1-3)GalNAc. The procedure, abridged: (§1)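 The binding signal is a Z-score computed within each array and averaged over linkers. Arrays of the same protein sequence at different concentrations or buffers were also averaged together. Data originate from 3228 arrays in the Consortium for Functional Glycomics database, kept only where the protein sequence was available.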

In the next assay the target is GlcNAc(b1-3)Gal(b1-4)Glc. The procedure, abridged:
as §1

For assay [2], the target named is GlcNAc(b1-3)Gal(b1-4)GlcNAc. The method, boiled down:
as §1

Assay [3] addresses GlcNAc(b1-3)Gal(b1-4)GlcNAc(b1-2)Man(a1-3)[GlcNAc(b1-3)Gal(b1-4)GlcNAc(b1-2)Man(a1-6)]Man(b1-4)GlcNAc(b1-4)GlcNAc. The method, boiled down: as §1
For assay [4], the target named is GlcNAc(b1-3)Gal(b1-4)GlcNAc(b1-2)Man(a1-3)[GlcNAc(b1-3)Gal(b1-4)GlcNAc(b1-2)Man(a1-6)]Man(b1-4)GlcNAc(b1-4)[Fuc(a1-6)]GlcNAc. The procedure, abridged:
as §1

The target of assay [5] is GlcNAc(b1-3)Gal(b1-4)GlcNAc(b1-2)[GlcNAc(b1-3)Gal(b1-4)GlcNAc(b1-6)]Man(a1-6)[GlcNAc(b1-3)Gal(b1-4)GlcNAc(b1-2)Man(a1-3)]Man(b1-4)GlcNAc(b1-4)GlcNAc. The method, boiled down:
as §1

Assay [6] concerns the target GlcNAc(b1-3)Gal(b1-4)GlcNAc(b1-3)Gal(b1-4)GlcNAc. The method, boiled down:
as §1

The target in assay [7] is GlcNAc(b1-3)Gal(b1-4)GlcNAc(b1-3)Gal(b1-4)GlcNAc(b1-2)Man(a1-3)[GlcNAc(b1-3)Gal(b1-4)GlcNAc(b1-3)Gal(b1-4)GlcNAc(b1-2)Man(a1-6)]Man(b1-4)GlcNAc(b1-4)GlcNAc. The method, boiled down: as §1
In assay [8] the target is GlcNAc(b1-3)Gal(b1-4)GlcNAc(b1-3)Gal(b1-4)GlcNAc(b1-2)Man(a1-3)[GlcNAc(b1-3)Gal(b1-4)GlcNAc(b1-3)Gal(b1-4)GlcNAc(b1-2)Man(a1-6)]Man(b1-4)GlcNAc(b1-4)[Fuc(a1-6)]GlcNAc. The method, boiled down:
as §1

In assay [9] the target is GlcNAc(b1-3)Gal(b1-4)GlcNAc(b1-3)Gal(b1-4)GlcNAc(b1-2)[GlcNAc(b1-3)Gal(b1-4)GlcNAc(b1-3)Gal(b1-4)GlcNAc(b1-6)]Man(a1-6)[GlcNAc(b1-3)Gal(b1-4)GlcNAc(b1-3)Gal(b1-4)GlcNAc(b1-2)Man(a1-3)]Man(b1-4)GlcNAc(b1-4)[Fuc(a1-6)]GlcNAc. The method, boiled down:
as §1

Assay [10] deals with GlcNAc(b1-3)Gal(b1-4)GlcNAc(b1-3)Gal(b1-4)GlcNAc(b1-3)Gal(b1-4)GlcNAc(b1-2)Man(a1-3)[GlcNAc(b1-3)Gal(b1-4)GlcNAc(b1-3)Gal(b1-4)GlcNAc(b1-3)Gal(b1-4)GlcNAc(b1-2)Man(a1-6)]Man(b1-4)GlcNAc(b1-4)GlcNAc. The procedure, abridged: as §1
Assay [11] concerns the target GlcNAc(b1-3)Gal(b1-4)GlcNAc(b1-3)Gal(b1-4)GlcNAc(b1-3)Gal(b1-4)GlcNAc(b1-2)Man(a1-3)[GlcNAc(b1-3)Gal(b1-4)GlcNAc(b1-3)Gal(b1-4)GlcNAc(b1-3)Gal(b1-4)GlcNAc(b1-2)Man(a1-6)]Man(b1-4)GlcNAc(b1-4)[Fuc(a1-6)]GlcNAc. The method, boiled down:
as §1

Assay [12] addresses GlcNAc(b1-3)Gal(b1-4)GlcNAc(b1-3)Gal(b1-4)GlcNAc(b1-3)Gal(b1-4)GlcNAc(b1-2)[GlcNAc(b1-3)Gal(b1-4)GlcNAc(b1-3)Gal(b1-4)GlcNAc(b1-3)Gal(b1-4)GlcNAc(b1-6)]Man(a1-6)[GlcNAc(b1-3)Gal(b1-4)GlcNAc(b1-3)Gal(b1-4)GlcNAc(b1-3)Gal(b1-4)GlcNAc(b1-2)Man(a1-3)]Man(b1-4)GlcNAc(b1-4)[Fuc(a1-6)]GlcNAc. The method, boiled down:
as §1

The target in assay [13] is GlcNAc(b1-3)Gal(b1-4)GlcNAc(b1-3)Gal(b1-4)GlcNAc(b1-3)Gal(b1-4)GlcNAc(b1-3)Gal(b1-4)GlcNAc(b1-2)Man(a1-3)[GlcNAc(b1-3)Gal(b1-4)GlcNAc(b1-3)Gal(b1-4)GlcNAc(b1-3)Gal(b1-4)GlcNAc(b1-3)Gal(b1-4)GlcNAc(b1-2)Man(a1-6)]Man(b1-4)GlcNAc(b1-4)GlcNAc. The method, boiled down: as §1
The target of assay [14] is GlcNAc(b1-3)Gal(b1-4)GlcNAc(b1-3)Gal(b1-4)GlcNAc(b1-3)Gal(b1-4)GlcNAc(b1-3)Gal(b1-4)GlcNAc(b1-2)Man(a1-3)[GlcNAc(b1-3)Gal(b1-4)GlcNAc(b1-3)Gal(b1-4)GlcNAc(b1-3)Gal(b1-4)GlcNAc(b1-3)Gal(b1-4)GlcNAc(b1-2)Man(a1-6)]Man(b1-4)GlcNAc(b1-4)[Fuc(a1-6)]GlcNAc. The method, boiled down:
as §1

In assay [15] the target is GlcNAc(b1-3)Gal(b1-4)GlcNAc(b1-3)Gal(b1-4)GlcNAc(b1-3)Gal(b1-4)GlcNAc(b1-3)Gal(b1-4)GlcNAc(b1-2)[GlcNAc(b1-3)Gal(b1-4)GlcNAc(b1-3)Gal(b1-4)GlcNAc(b1-3)Gal(b1-4)GlcNAc(b1-3)Gal(b1-4)GlcNAc(b1-6)]Man(a1-6)[GlcNAc(b1-3)Gal(b1-4)GlcNAc(b1-3)Gal(b1-4)GlcNAc(b1-3)Gal(b1-4)GlcNAc(b1-3)Gal(b1-4)GlcNAc(b1-2)Man(a1-3)]Man(b1-4)GlcNAc(b1-4)[Fuc(a1-6)]GlcNAc. The procedure, abridged: as §1

Assay [16] addresses GlcNAc(b1-3)Gal(b1-4)GlcNAc(b1-3)Gal(b1-4)GlcNAc(b1-3)GalNAc. The method, boiled down:
as §1

The target of assay [17] is GlcNAc(b1-3)Gal(b1-4)GlcNAc(b1-3)GalNAc. The method, boiled down:
as §1

Assay [18] has as its target GlcNAc(b1-3)Gal(b1-4)GlcNAc(b1-3)[GlcNAc(b1-3)Gal(b1-4)GlcNAc(b1-3)]GalNAc. The method, boiled down: as §1
For assay [19], the target named is GlcNAc(b1-3)Gal(b1-4)GlcNAc(b1-6)[Gal(b1-3)]GalNAc. The procedure, abridged:
as §1

Assay [20] addresses GlcNAc(b1-3)Gal(b1-4)GlcNAc(b1-6)[GlcNAc(b1-3)Gal(b1-3)]GalNAc. The procedure, abridged: as §1
For assay [21], the target named is GlcNAc(b1-3)Gal(b1-4)GlcNAc(b1-6)[GlcNAc(b1-3)]Gal(b1-4)GlcNAc. The method, boiled down: as §1

Some of the results follow.

B1: BTL (Bryothamnion triquetrum) (protein)
chain: ADPICGSSGYSCTTPAILTPKSPGSFPSGYSKVIVTGVGGSYSVYIHRPDGFKVYKASEGGCASFGSYSGGGNSEVGKYGSGGTVVAVACK
For B1, the “glycan array binding signal (z-score)” value in assay [1] is -0.182; with GlcNAc(b1-3)Gal(b1-4)Glc, -0.278; in assay [2], -0.247; in [3], -0.193; in [4] it was 3.45; in assay [5] it was -0.329. For the same molecule, the “glycan array binding signal (z-score)” value was -0.249 in [6]; -0.105 in [7]; 4.09 in assay [8]; 2.68 in assay [9]; -0.185 in assay [10]; 3.85 in assay [11]. The “glycan array binding signal (z-score)” value in assay [12] was 2.31; in [13], -0.137; in [14], 3.86; in [15], 2.37; in assay [16], -0.209; in [17], -0.117. Besides, the “glycan array binding signal (z-score)” value in assay [18] was -0.194; in assay [19], -0.146; in [20], -0.269; in [21] it was -0.269.
